Results taken from publication PMC8070189, “Native Structure-Based Peptides as Potential Protein–Protein Interaction Inhibitors of SARS-CoV-2 Spike Protein and Human ACE2 Receptor” (Molecules, 2021).

Target: recombinant S-RBD protein (with an Fc tag) (SARS-CoV-2, UniProt P0DTC2)
Assay: ELISA
Settings: both partners purified

## DKGNHEAED (also called 30-DKGNHEAED-38) [pep1c]
  IC50: 3.3 ± 0.8 mM
